From the supplement of paper PMC4166925
± gives the standard deviation of the averaged measurements. The full ranking holds about 33,000 sequences; the median of “E-score (dimensionless, -0.5 to 0.5)” is about -0.046, and the highest 2% start at about 0.36. The list shows a part of the results.

Each sequence was assayed on T1, SpTbr T-box DNA-binding domain (GST fusion) (assay: PBM E-score of 8-mer (E-score (dimensionless, -0.5 to 0.5)); Tbr is Tbrain of the sea star Patiria miniata (Pm) or the sea urchin Strongylocentrotus purpuratus (Sp); higher = stronger binding preference; most listed sequences are background and not binding sites). Details: the construct has about 5 more residues each side.
T1 sequence: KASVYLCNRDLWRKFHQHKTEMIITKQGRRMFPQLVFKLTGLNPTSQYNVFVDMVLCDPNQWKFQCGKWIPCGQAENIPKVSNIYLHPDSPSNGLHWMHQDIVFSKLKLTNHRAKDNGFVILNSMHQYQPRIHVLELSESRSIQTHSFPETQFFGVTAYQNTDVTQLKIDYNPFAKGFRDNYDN
Method: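 Universal protein-binding microarray (Agilent AMADID 016060, 60-bp probes with a 35-bp variable region) incubated with 200 nM GST-fused Strongylocentrotus purpuratus Tbr T-box DNA-binding domain (residues 362-554) in PBS pH 7.5. Scored for every ungapped 8-mer (given with its reverse complement) as E-score (range -0.5 to 0.5; >0.45 counts as bound) and Z-score of median probe intensity. Two replicate arrays (datasets 1 and 2).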
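Further: protein at 200 nM in PBS on universal double-stranded arrays.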

Sequence	PBM E-score of 8-mer
AGAATCTC	-0.09 ± 0.0084
CGTACCCA	-0.102 ± 0.027
GCTCATTA	-0.0876 ± 0.014
ATTACGGC	-0.0536 ± 0.027
GTTGGAAA	-0.00285 ± 0.039
ATAGGAAC	-0.223 ± 0.037
GGTATACA	0.123 ± 0.048
CCGGCCCG	-0.23 ± 0.028
AAACAGAG	-0.054 ± 0.018
ATACCTTG	-0.0457 ± 0.019
AGGCATAT	-0.271 ± 0.0056
GGGTTCCA	-0.161 ± 0.0024
ACTGCAGG	-0.128 ± 0.0053
GAGCCCTC	-0.109 ± 0.0089
GTGCTATA	0.0851 ± 0.12
CTTCAAGC	-0.184 ± 0.079
CAGAGTTA	0.0747 ± 0.026
CGACCGTA	-0.191 ± 0.024
ACGATTGA	0.0613 ± 0.013
CCACCCGA	0.172 ± 0.083
CCCATGGA	-0.276 ± 0.0047
CATTGAAA	-0.151 ± 0.0056
GCCGCTAA	0.101 ± 0.035
AGCTGTAC	-0.0895 ± 0.0019

Sequence	PBM E-score of 8-mer
ATTCATGG	-0.0573 ± 0.016
CAATTCTA	-0.0485 ± 0.031
ACCTGCAA	0.175 ± 0.031
CGCCAAGA	0.0666 ± 0.023
ATACATGA	-0.0733 ± 0.02
AAGTTCTA	-0.182 ± 0.063
CGACCTTA	-0.237 ± 0.008
AATAGGTA	-0.0758 ± 0.075
AAAACCAT	-0.0372 ± 0.053
AGATGTGC	0.161 ± 0.011
TTATTGAA	-0.142 ± 0.024
CGGTGGCA	0.186 ± 0.053
GCACCACA	0.191 ± 0.056
TAACGAGA	0.0423 ± 0.028
AGCACCAG	0.0212 ± 0.037
CCGCCTCC	0.0266 ± 0.06
ACGCCAGG	0.122 ± 0.0013
AACTTACT	-0.137 ± 0.088
GGAATGCC	-0.187 ± 0.06
TCATCTCA	0.0482 ± 0.019
CCGATGTC	-0.119 ± 0.12
CAGCTAAC	0.101 ± 0.026
ACACTGGG	-0.0645 ± 0.024
ATATCTTA	0.0462 ± 0.021

Sequence	PBM E-score of 8-mer
ACCTAGGA	0.0169 ± 0.036
GCCGGCAA	-0.0272 ± 0.043
AAAGGGAG	-0.0934 ± 0.0065
CTATTGTA	-0.333 ± 0.0049
CGCTTGTA	-0.0247 ± 0.089
GAGTCACC	0.0765 ± 0.03
AATACGGA	-0.171 ± 0.016
GGCGCCTA	0.0174 ± 0.061
CTTTGTTC	-0.131 ± 0.026
AACGAGAG	-0.146 ± 0.019
TAGAGCTA	-0.135 ± 0.041
AGATTAAT	-0.0533 ± 0.075
CCCACGGA	-0.334 ± 0.046
AAGGGTGT	0.383 ± 0.015
ATGGTACG	-0.179 ± 0.089
GGTCTCAC	0.3458 ± 0.0029
AATTCGTG	-0.0695 ± 0.04
ATGCACAC	0.231 ± 0.05
CATGATAG	-0.193 ± 0.025
CAAAGCGA	-0.0477 ± 0.082
CCTTGCTC	0.0297 ± 0.044
CGAACTTC	-0.0592 ± 0.019
CTAAGCGC	-0.0678 ± 0.024
CAGCCTGC	-0.0414 ± 0.014

Sequence	PBM E-score of 8-mer
AAGGACGG	-0.342 ± 0.054
ACAAGCAA	0.0484 ± 0.082
CCGTTCCG	-0.176 ± 0.021
CGATGTAC	-0.0535 ± 0.057
ACCCCAGA	-0.00795 ± 0.0064
AGCTGCCG	0.0367 ± 0.019
AGACCCAG	-0.1 ± 0.012
GTCTACAA	-0.0203 ± 0.07
ACCCGCCA	0.16 ± 0.057
CTCGGACC	-0.177 ± 0.011
GAATAATC	-0.25 ± 0.026
CAGATTAA	-0.163 ± 0.099
AACCGTAA	-0.129 ± 0.067
GTCTGAAA	-0.0236 ± 0.086
GATTATAC	-0.0275 ± 0.013
AAGCCAGG	-0.254 ± 0.02
ATCCCCGC	-0.0328 ± 0.091
CTACTCGC	0.204 ± 0.0062
CCGACCAG	-0.235 ± 0.0047
TGCTGCAA	-0.0593 ± 0.055
ATAGGTGA	0.284 ± 0.032
CAGAGCAA	-0.326 ± 0.042
